Here are results for 167 variants from the RNAGym collection of RNA variant scans (doi:10.7554/elife.90254).

The labels stand for the following.
B1: LINE1-full (parent)
chain: UACGUAGGUGGUUUUCCCCUGAUAGUGCUAAGGGGGCCUGGAAGUUUGGACUGGGCAGAGCUCAACACAGCGUGGCAAAGUGGCUGUGGCUAGACUGCCUCUCUGGAUUCCUCGUCACUCAGCAGGGCAUCUCUGAGAGAAAUGCC

The source gives no read counts; variants with many changes may rest on few reads.

In this data set the parent is B1. Kind of data set: self-cleavage, relative activity (ratio to wild type); higher = more cleavage; in vitro, sequencing; the parent is a self-cleaving ribozyme.
For U39C G72A A138G, the self-cleavage was 0.93. As for U39G G49A C145U, the self-cleavage amounted to 0.75. As for U39A U62A A69G, the self-cleavage turned out to be 0.06. Under G41A A78G U96G U119C stands 0.07; under U39G U45C U108C, 1.84; under U39C A64G C66A U91C, 0.19. For U39A U47C U52A G122A, the self-cleavage is 1.59.

U39C A79G U119A U134C A138G: the self-cleavage was found to be 1.72. To U39C U132A G135U belongs 1.66; to U39A A64U A94G, 0.1; to C38G A65U A78G U96C, 0.06. On to U39A U45G U87C, for which the self-cleavage was 0.24.

In the case of U39C A57U U62C, the self-cleavage stood at 0.13.

On to U39G U85A U109A A138U, for which the self-cleavage worked out at 0.06. Regarding A42C U87C A129U, the self-cleavage amounted to 0. Under A42G A65G G86A stands 0.03; under G40U A78G A94U, 0.12; under U39A C101U A117G, 1.25. To C37A U47C A69U U73A A78G U108C belongs 0; to U39C U45C U52C, 0. To G36U U46C A64U belongs 0.43; to G36A U73C G97U, 0.03; to U39C A92G U134C A140U, 0. Regarding C38U G82A U112C, the self-cleavage was 1.58. To U39C U52A A65U A77G A141G belongs 0.35; to C37U A64G A138G, 0.17; to G41U G58A U112C A140G, 0.02.

With U39A A42G U73A U81A U130C, the self-cleavage came to 2.25. For the variant G40A U62A C146U, the self-cleavage turned out to be 0.03.

G41A A65G U87C: the self-cleavage was 0.03.

Regarding U39C U52A A64G U109C C123U, the self-cleavage was 0.17. To U39G U85C U143A belongs 0.34; to U39C U85C U115C A140U, 0.

For U39A A77G U109C, the self-cleavage was 2.73.

Take U39C A78G U109C U112C U143C: the self-cleavage is 1.84. Under U39C G86U A117U U134C stands 0.05. To U39C A67G U134C belongs 0.56; to C38A C71U A117G U134C U143C, 0.59. To G36C A129G U132C belongs 0; to C37G U100A U104C, 1.43. As for C37G A42G A77G, the self-cleavage amounted to 0.57. As to U39C U85C A94U, the self-cleavage stood at 0.14. To G41A G53U U115C belongs 1.3; to U39A A64G A77U, 0.21; to U39A U115A A140G, 0.72. As for U39C A65U U115C C118U, the self-cleavage came out at 0.18. Under C38G U81A G82U G97U stands 0.21; under U39G U81C G88A A94G, 0; under G36U G54A A124G U134C, 0.07. Under U39C A57U U87A A124G stands 0.06; under A42G A43G A124U A142G, 0.43. Under C37U U73A A78G G89A A121G U132C stands 0.06; under U39C A57G A121U A138G, 0.79; under G36C U47C A65G C71U A79G U85C C120U, 0.05.

As to U39A A57U A121G, the self-cleavage turned out to be 0. In the case of U39C A67G G97U A124G, the self-cleavage came out at 0.

As to U39A U85C G88U U132C, the self-cleavage worked out at 0.06. With U39A A67U U100C U104C C120U A138U, the self-cleavage amounted to 0.26.

As to G41A A64G C99U, the self-cleavage was 0.16. U39C A42G U100C: the self-cleavage turned out to be 1.46.

As to U39A A92G U100A, the self-cleavage is 0.12. Regarding U39A U46C A129G, the self-cleavage was 0.33.

Turning to U39A U52A A78G A140G, the self-cleavage amounted to 1.11. To U39C U81C C123A belongs 1.23; to U39A C95A U115C U119C, 0.08.

In the case of U39C G93C U115C, the self-cleavage is 0.

Turning to G36U U62A A69G A92U U115A, the self-cleavage was 0.02.

U39A U109C C113U U134C: the self-cleavage was found to be 1.52. Under C37A A42G A65G U85A stands 0. For G40A A78C A107G, the self-cleavage is 1.87. For the variant C37G A50G U87C U134G, the self-cleavage came to 0. Under G36C U52G G88A stands 0.07. For the variant U39C U45G G60A A140G, the self-cleavage stood at 0.04. For U39C G48A U134A, the self-cleavage was 0.51. For the variant C37A G48A A124G A142G, the self-cleavage turned out to be 0.54. To G36U A59G U112C belongs 0.07; to U39C U46C A140G, 1.12; to U39C G41A A121G A141G, 1.4.

Consider A42G A64G U87A, for which the self-cleavage was 0.11. On to U39A A69U U130C, for which the self-cleavage turned out to be 0.05. On to U39A A69U A94G U108C A136G, for which the self-cleavage came out at 0.18. To G36C A50U U52A belongs 0.43. Take U39C U62C A141G: the self-cleavage turned out to be 0. Turning to U39C U102A A107G G114A, the self-cleavage is 2.17.

Consider A42G A65G A69G U81A C116U C120U, for which the self-cleavage was 0.1. Consider G36C A57G A142G, for which the self-cleavage amounted to 0.55. As for U39C C51U A94G U130A, the self-cleavage came out at 0.44. Under U39A G74A U143A stands 1.09; under C38G A79G A140G, 0.91. Under G40A A67U C90U stands 0.02. C38A U39A U109C U132C U134A: the self-cleavage is 0.46. To G40U U46A U73A belongs 1.52; to U39A U46C U47C, 1.18. To U39A A57U U62C A77U C103U belongs 0.07; to U39C G70A U115A G122A, 0.04. To U39A A138U A142G belongs 1.96.

For G40U A59U U73C A107G, the self-cleavage is 1.28. Under U39G U46C U108C stands 1.25; under C37G A64U U81A U96A U108C, 0.01. Under U39G A78U U134C stands 1.73; under U39C G41U C51U, 1.04. Under U39C U46C U109C stands 0.44; under U39A U52C U73A, 1.94.

On to U39C G105U A124U U132C, for which the self-cleavage is 1.87. To G41A U85C U132C belongs 0.1; to U39C U132C A142G, 1.05. Under C38A A50G G55C A79G stands 0; under A42C A57G C128U U134A, 0.2. U39A A50G U62C C63U U100C U134A: the self-cleavage came out at 0.2. Turning to C37U A124G A142G, the self-cleavage is 0.58.

Take G36C A64U U143G: the self-cleavage came out at 0.34. With U39C A69G A79G A94U, the self-cleavage amounted to 0.92. Take U39A A65G A69U: the self-cleavage stood at 0.03.

U39C A77G U115C: the self-cleavage stood at 1.84.

U39A C63A A69G: the self-cleavage came out at 0.07. G36U C66U A117G: the self-cleavage is 0.12. To U39A A67U U119A U130G A138G A141U belongs 0.13; to U39C A64G A129G, 0.78; to U39A A69C U81C A138G, 0.39. Consider C38A U87C A124C U134C, for which the self-cleavage was determined as 0.2. Take G36U G49C U100C: the self-cleavage stood at 2.68. For the variant G41A U46C A117G, the self-cleavage worked out at 1.38. To G36U G58A A69G belongs 0.04. Under U39C A42G U46C stands 1.53; under U39C G80U A92G, 0.03. To G36C A43G U119A belongs 1. On to U39C G49U A65U U81A C90A, for which the self-cleavage amounted to 0.03.

Regarding C37G U39A U52A, the self-cleavage is 1.77. To C37A A107G A142G belongs 1.28. Under U39C A50G A64U stands 0.39; under C38U U45C U52A A79G U130C, 0.44. Under A42G A50U U130C stands 0.56; under U39C A117U A138G, 1.3; under C38A U47C U115C, 1.87. With C37A U104C A117C, the self-cleavage is 1.05. To G36C U45C G89A C131U belongs 0.01; to A42G A65G U96C C113U U119C A136G, 0. For the variant U39G A43G U102A, the self-cleavage came to 0.97. Under U39C U115C A129G stands 1.41. Consider U39C A64U U100C C110G U143C, for which the self-cleavage came out at 0.94.

As to G40A U115C A117G, the self-cleavage was determined as 0.4. Take U39C G49U A69G A129G A140G: the self-cleavage amounted to 0.15. Take G41A U46C A57U: the self-cleavage turned out to be 0.23. Turning to A42G A59G U73A, the self-cleavage came to 0.17. To U39A A42G U47C belongs 1.61; to U39A A92U A121G, 0.77.

On to C38A A64G U85A A129U U132C, for which the self-cleavage is 0.03. On to G40A A79G U102C, for which the self-cleavage worked out at 1.08. To U39A A78U A121C U134A belongs 1.99; to U39C A121G U143A, 1.58.

As to G41U A78U U134G U143C, the self-cleavage turned out to be 1.45. Under U39A A136U A138G A141G stands 1.36; under U39A A64U A78G U115A A140G, 0.25; under A42G A57G A69U, 0.07.

For the variant U39C U45C A78G A140G, the self-cleavage worked out at 0.8. Under C37A A124G A138G U143C stands 0.76; under A42C U73C A77G A78G U104A C118U, 0.92. To U39A A43G A107G belongs 0.56; to C37U U102A A136U A140U A141G, 1.28. Regarding U39C A117G A140G, the self-cleavage turned out to be 1.02. Consider U39C U45C G74U, for which the self-cleavage amounted to 1.22.

Regarding U39C U52C A65U U73A U112C U132C, the self-cleavage was 0. As for U39A U46A U62C G114C, the self-cleavage is 0.06. On to U39C A64U G82A A121U, for which the self-cleavage came out at 0.3. In the case of G41A A59G U96C, the self-cleavage stood at 0. With C38G A64G A142G, the self-cleavage amounted to 0.18.

On to U39A U46A C110U A136G, for which the self-cleavage was 1.19.
